# PubChem BioAssay AID504339 (National Center for Advancing Translational Sciences (NCATS), 2011)
# Out of some 390,000 compounds screened, about 17,000 (4.4%) were called active. This list was built around the results that the source calls inconclusive (neither active nor inactive); the mix of calls is not that of the screen. Calls follow the shape of the dose curve; as a rule, active = well fitted inhibition curve with a large enough effect; inconclusive = small, poorly fitted or top-dose-only effect; inactive = no such curve, though single readings can be large or run the other way. Potencies of inconclusive entries are doubtful fits and often do not repeat.
# Target: Lysine-specific demethylase 4A (Homo sapiens) (UniProt O75164)
# Experiment: qHTS Assay for Inhibitors of JMJD2A-Tudor Domain; also: nearly all actives have a fitted effect of over 50% in size
# Conditions: AlphaScreen JMJD2A-Tudor / H3K4me3 peptide binding; activity change, negative = inhibition: at 114 µM (top of the series)
# % is scaled to controls: 0 for no effect and ±100 for the full control effect; potency is read from the fitted curve at half-maximal effect; tags tell the direction and shape of the fitted curve.
# Chain of UniProt O75164 (O75164 whole entry, looked up, the tested form may be a part): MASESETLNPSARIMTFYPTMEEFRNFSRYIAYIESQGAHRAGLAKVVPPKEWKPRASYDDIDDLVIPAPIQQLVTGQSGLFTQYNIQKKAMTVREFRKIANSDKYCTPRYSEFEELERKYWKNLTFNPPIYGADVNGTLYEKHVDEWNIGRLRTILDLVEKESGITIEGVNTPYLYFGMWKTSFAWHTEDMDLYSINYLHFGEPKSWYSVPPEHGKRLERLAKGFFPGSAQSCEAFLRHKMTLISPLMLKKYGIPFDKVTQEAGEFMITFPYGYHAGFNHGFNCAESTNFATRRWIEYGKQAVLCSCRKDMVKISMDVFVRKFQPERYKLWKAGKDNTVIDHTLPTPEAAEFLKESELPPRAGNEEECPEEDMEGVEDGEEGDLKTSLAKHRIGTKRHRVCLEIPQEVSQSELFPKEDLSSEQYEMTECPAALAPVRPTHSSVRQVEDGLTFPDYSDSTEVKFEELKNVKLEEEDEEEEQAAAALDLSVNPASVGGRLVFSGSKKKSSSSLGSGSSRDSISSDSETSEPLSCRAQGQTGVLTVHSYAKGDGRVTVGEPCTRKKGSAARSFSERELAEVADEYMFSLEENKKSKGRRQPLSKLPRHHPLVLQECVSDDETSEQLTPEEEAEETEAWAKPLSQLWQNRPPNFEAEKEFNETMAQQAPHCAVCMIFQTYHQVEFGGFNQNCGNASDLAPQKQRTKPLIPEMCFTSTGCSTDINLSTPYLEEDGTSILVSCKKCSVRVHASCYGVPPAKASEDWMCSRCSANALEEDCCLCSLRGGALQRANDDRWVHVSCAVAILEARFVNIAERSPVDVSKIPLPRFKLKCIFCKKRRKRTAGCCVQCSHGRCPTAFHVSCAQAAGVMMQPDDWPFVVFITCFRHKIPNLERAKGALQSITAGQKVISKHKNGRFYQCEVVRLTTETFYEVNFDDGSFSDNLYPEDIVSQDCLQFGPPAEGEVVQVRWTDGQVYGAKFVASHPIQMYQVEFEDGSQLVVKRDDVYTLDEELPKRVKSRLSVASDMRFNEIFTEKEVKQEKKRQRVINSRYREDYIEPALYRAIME
SMILES,"activity change, negative = inhibition",Potency
COCCCNC(=O)C1CCN(c2nnc(-n3cccc3CNc3ccc(C)cc3)s2)CC1,inactive: -16.7%,
CC/C(O)=C(/C#N)c1nnc2n1CCCCC2,,active: 28.2 µM
Cc1cc(O)c(C(C)C)cc1N=Cc1cc([N+](=O)[O-])ccc1O,inactive: -20.7%,
Cc1ccc(C2N(c3nccs3)C(=O)C3CCCN32)cc1 (configuration not stated),,active: 20 µM
Cc1ccc(C)c(N2CCN(CCCNC(=O)Cn3c(-c4cccs4)cc4ccccc43)CC2)c1,,"inconclusive: 28.2 µM [inhibitor, partial curve]"
CC(C)(C)NC(=S)N/N=C\c1ccc(-c2ccc([N+](=O)[O-])cc2)o1,,"inconclusive: 50.1 µM [inhibitor, partial curve, poor fit]"
CCn1cnc2cc([N+](=O)[O-])ccc21,inactive: -7.59%,
CCOc1ccc(Sc2cc(C(=O)NCCCOC)c3ccccc3n2)cc1,inactive: -15.3%,
Cc1cc(N(C)N)nc(NC(=O)NS(=O)(=O)c2ccccc2Cl)n1,,active: 28.2 µM
C#CCOc1ccc(C2C(C(=O)OC)=C(C)NC3=C2C(=O)c2ccccc23)cc1OCC (configuration not stated),,active: 25.1 µM
Cn1c(=O)c2c(-c3ccccc3)n(CCCN3CCOCC3)cc2n(C)c1=O,inactive: -30.8%,
O=C(Cc1ccccc1)NC(C(=O)O)C(O)c1ccc([N+](=O)[O-])cc1 (configuration not stated),inactive: 1.01%,
COc1ccc(OC)c(NC(=O)c2cc(S(=O)(=O)NCc3ccco3)ccc2F)c1,,"inconclusive: 50.1 µM [inhibitor, partial curve]"
CC(=O)Nc1sc(N/N=C/c2ccc(O)cc2)nc1-c1ccc(C)cc1,,active: 44.7 µM
O=S(=O)(Nc1ccc(-c2ccc3nncn3n2)cc1)c1cccs1,inactive: -15.4%,
CCCc1nnc(NC(=O)CS(=O)(=O)c2ccc(C)cc2)s1,inactive: 2.03%,
CC(=O)/C(C#N)=C1\NC(=O)C(Cc2ccccc2Cl)S1 (configuration not stated),,"inconclusive: 89.1 µM [inhibitor, single point]"
Cc1c(C(=O)Nc2ccc(Cl)cc2)c2ccccn2c1C(=O)c1ccc([N+](=O)[O-])cc1,,"inconclusive: 14.1 µM [inhibitor, partial curve]"
O=C1OC(c2ccccc2)(c2ccc3cc(O)ccc3c2)c2ccccc21 (configuration not stated),,"inconclusive: 56.2 µM [inhibitor, partial curve, poor fit]"
CN(C(=O)COC(=O)c1ccc([N+](=O)[O-])cc1Cl)C1CCCCC1,inactive: -22.6%,
CCOC(=O)c1ccc(N2C(=O)CC(Sc3nc(O)c(CC)c(=O)[nH]3)C2=O)cc1 (configuration not stated),,"inconclusive: 44.7 µM [inhibitor, partial curve]"
COc1cc([N+](=O)[O-])cc(/C=C2/SC(=S)N(Cc3ccccc3)C2=O)c1O,,active: 17.8 µM
Brc1ccc(CSc2ccc3nnc(-c4ccccn4)n3n2)cc1,,"inconclusive: 31.6 µM [inhibitor, partial curve]"
CCOC(=O)c1cc(C(=O)OCC)c2cc(Br)ccc2n1,,"inconclusive: 89.1 µM [inhibitor, partial curve]"

SMILES,"activity change, negative = inhibition",Potency
O=C(NC(=S)N1CCc2ccccc21)C1CCC1,inactive: -2.46%,
CC(C)c1csc(CN2CCC(CO)(Cc3cccc(F)c3)CC2)n1,inactive: -13.1%,
COc1cc2c(cc1OC)C(c1ccco1)CC(=O)N2 (configuration not stated),inactive: -25.5%,
Cc1cccc(C(C#N)c2nc3ccccc3nc2C(F)(F)F)c1 (configuration not stated),inactive: 8.78%,
COc1cccc(CN(C(=O)c2ccc([N+](=O)[O-])cc2)C2CCS(=O)(=O)C2)c1 (configuration not stated),,"inconclusive: 28.2 µM [inhibitor, partial curve]"
C#CCOCCOCCOCCNc1nc(N2CCN(C(=O)CCCCCCCCCCNC(=O)[C@@H](CCC(=O)O)n3cc(CCCCCN)nn3)CC2)nc(N2CCN(C(=O)CCCCCCCCCCNC(=O)[C@H](CO)n3cc(CCCSC)nn3)CC2)n1,,active: 44.7 µM
O=C(NCC1CCCO1)c1cccc(Oc2ccc([N+](=O)[O-])cc2Cl)c1 (configuration not stated),inactive: -23.1%,
OC(CN1CCC(Cc2ccccc2)CC1)C(F)(F)F (configuration not stated),inactive: -1.01%,
Cc1ccc(N(CC(=O)NCCc2ccc(F)cc2)S(=O)(=O)c2ccc(Cl)c([N+](=O)[O-])c2)c(C)c1,,"inconclusive: 10 µM [inhibitor, full curve, poor fit]"
COc1ccc(CN2C(=O)c3cccnc3C2Nc2cc(Cl)ccc2OC)cc1 (configuration not stated),,active: 20 µM
CCc1ccc(-c2[nH]c3c(c2-c2c(-n4cccc4)n(C)c(=O)[nH]c2=O)c(=O)[nH]c(=O)n3C)cc1,inactive: 0.331%,
O=C1NC(=O)C(c2ccccc2[N+](=O)[O-])=C1Nc1ccc(O)c(Cl)c1,,"inconclusive: 79.4 µM [inhibitor, partial curve]"
COc1ccc(OC)c(-c2cc(C(=O)NCCCn3ccnc3)no2)c1,,"inconclusive: 89.1 µM [inhibitor, partial curve]"
CC(C)NC(=S)NN=C1CCC(c2ccccc2)CC1 (configuration not stated),,"inconclusive: 56.2 µM [inhibitor, partial curve]"
O=S(=O)(O)c1ccc(O)c2cc(Nc3ccccc3)ccc12,,active: 2.82 µM
CC(OC(=O)CN(C)S(=O)(=O)c1ccc(Cl)cc1)C(=O)Nc1ccc(N2CCOCC2)cc1 (configuration not stated),inactive: -20.8%,
COC(=O)N/N=C/c1cccc(OCCSc2ccc(Cl)cc2)c1,,"inconclusive: 89.1 µM [inhibitor, single point]"
CCN(CC)C(=O)c1[nH]cnc1C(=O)Nc1ccon1,,"inconclusive: 28.2 µM [inhibitor, full curve]"
Cc1ccc(/C=C/C(=O)Nc2nnc(C)s2)o1,inactive: -4.39%,
CCN(CC)C(=O)[C@H]1C[C@H](CC(=O)NC(C)(C)C)C(=O)N2CCc3c([nH]c4cc(-c5ccco5)ccc34)[C@]12C,,"inconclusive: 50.1 µM [inhibitor, partial curve]"
COC(=O)/C(=N/Nc1ccccc1)N1CCCc2ccccc21,,"inconclusive: 56.2 µM [inhibitor, partial curve]"
CCOC(=O)C1(C)C=C(Nc2cccc(OC)c2)C(=O)N1c1ccccc1 (configuration not stated),,"inconclusive: 25.1 µM [inhibitor, single point]"
COC(=O)C1=C(C)N=C2SC(C)C(=O)N2C1/C=C/c1ccccc1 (configuration not stated),,"inconclusive: 50.1 µM [inhibitor, partial curve]"
O=[N+]([O-])c1ccc(N2CCN(C(=S)c3cccc([N+](=O)[O-])c3)CC2)cc1,,"inconclusive: 50.1 µM [inhibitor, partial curve]"

SMILES,"activity change, negative = inhibition",Potency
CC1C=CCC2C(=O)N(c3ccc(Cl)cc3O)C(=O)C12 (configuration not stated),,active: 15.8 µM
Brc1ccccc1OCCCCCN1CCOCC1,,active: 4.47 µM
Cc1cccc(N2CCN(C(=O)CCS(=O)(=O)c3ccc4c(c3)NC(=O)CO4)CC2)c1C,,"inconclusive: 14.1 µM [inhibitor, partial curve, poor fit]"
CCN1CCC(O)(/C=C/c2ccc(C(C)C)cc2)C(C(=O)/C=C/c2ccc(C(C)C)cc2)C1 (configuration not stated),,active: 31.6 µM
C/C(=N\NC(=S)NC(C)C)c1ccc(C(C)(C)C)cc1,,"inconclusive: 79.4 µM [inhibitor, partial curve]"
N#C/C(=C\c1ccc(O)c(O)c1)C(=O)Nc1ccccc1,,"inconclusive: 17.8 µM [inhibitor, partial curve]"
CCCCn1c(N)c(N(CCOC)C(=O)COC(=O)c2ccccc2NCCO)c(=O)[nH]c1=O,inactive: 3.36%,
Brc1ccc(C2=Nc3cccc4cccc(c34)N2)o1,,"inconclusive: 20 µM [inhibitor, partial curve]"
CCC(C)NCCOCCOc1ccc(C)cc1OC (configuration not stated),,active: 20 µM
COc1ccc(N2CCN(C(CNC(=O)C(=O)NCc3ccc(F)cc3)c3cccnc3)CC2)cc1 (configuration not stated),inactive: -16.1%,
COC(=O)[C@@]1(Cc2ccc(F)cc2)[C@H]2c3cc(C(=O)N(C)C)n(Cc4ccc(OC)c(OC)c4)c3C[C@H]2CN1C(=O)c1ccccc1,,"inconclusive: 89.1 µM [inhibitor, partial curve]"
COc1ccc(OC)c(/C=N/n2c(-c3n[nH]c4c3CCC4)n[nH]c2=S)c1,,active: 6.31 µM
O=C1Nc2ccccc2C1=NN1CCCCCC1,,"inconclusive: 56.2 µM [inhibitor, partial curve]"
Cc1nc2c(C)cccn2c1/C(O)=C1\C(=O)C(=O)N(CCN(C)C)C1c1ccncc1 (configuration not stated),,"inconclusive: 79.4 µM [inhibitor, single point]"
CCCCN1C(=O)C(O)(c2c(C)[nH]c3ccccc23)c2cc(Br)ccc21 (configuration not stated),,"inconclusive: 56.2 µM [inhibitor, partial curve]"
Cc1ccc(NC(=O)C2(NC(=O)c3ccccn3)CCCCC2)cc1Br,,"inconclusive: 35.5 µM [inhibitor, partial curve]"
CS(=O)(=O)N(Cc1ccccc1)c1ccc(C(=O)NCCSCc2ccco2)cc1,,"inconclusive: 56.2 µM [inhibitor, partial curve]"
Cc1cccc(Cc2c(C)nc3c(C(=O)NCc4ccco4)cnn3c2C)c1,,"inconclusive: 56.2 µM [inhibitor, partial curve, poor fit]"
Cc1ccc(NC(C)c2cc(Cl)ccc2O)cc1 (configuration not stated),,"inconclusive: 100 µM [inhibitor, single point]"
Cc1ccc(-c2nnc(SCC(=O)NCCC(C)C)nc2-c2ccc(C)cc2)cc1,,"inconclusive: 20 µM [inhibitor, full curve, poor fit]"
COC(=O)c1ccn(CC(=O)NC2CCCCC2)n1,inactive: -18.9%,
Cc1ccc(NC(=O)COC(=O)c2cccc3c2C(=O)c2ccccc2C3=O)c(C)c1,,"inconclusive: 11.2 µM [inhibitor, full curve]"
COc1ccc(-c2nnc3ccc(SCC(=O)N4CCCC4)nn23)cc1,inactive: -8.51%,
C=CCN(CC=C)CCOc1ccccc1F,,"inconclusive: 44.7 µM [inhibitor, single point]"
